# Screen size: about 52,000 compounds; about 4,300 (8.3%) were called active. No stated cut-off is given here; in the data, active means survival mostly below about 52% (no sharp cut-off); inactive means mostly above about 56%. The list shows a part of the results.
# System: DeltatarO mutant
# Assay: growth inhibition of S. aureus wild type versus tarO mutant, primary screen, teichoic acid synthesis inhibitors, RN4220, OD600 (AID 463173)
# Conditions: OD600, 18 h, hits give low values, screened at 18.75 µg/mL (by protocol)
row,Structure (SMILES),survival
1,CC(=O)c1cccc(NC(=O)CCn2nc(C)c(S(=O)(=O)N(C)C)c2C)c1,inactive: 88%
2,S=c1[nH]nc(CNc2cccc(Cl)c2)o1,inactive: 65%
3,Cc1ccc(C(=O)NCC(c2cccs2)S(=O)(=O)c2ccccc2)cc1C (stereo unspecified),inactive: 125%
4,CC(C)Nc1nc2c(S(=O)(=O)c3cccc(Cl)c3)nnn2c2ccsc12,inactive: 70%
5,CC(C)CCNC(=O)c1ccc2nc(CCc3ccccc3)oc2c1,inactive: 49%
6,C=CCc1ccccc1OCc1nc2ccc(C)cc2[nH]1,inactive: 65%
7,Cc1ccccc1NC(=O)CC1NCCNC1=O (stereo unspecified),inactive: 144%
8,COc1ccc(-n2ncc(C(=O)N3CCN(C4CCCCC4)CC3)c2C2CCN(C(=O)OC(C)(C)C)CC2)cc1,inactive: 89%
9,Cn1c(=O)n(CC(=O)O)c(=O)c2c1nc1n2CCCN1c1ccc(Cl)cc1,inactive: 97%
10,CCN(CC)S(=O)(=O)c1ccc2c(c1)c(=O)c(C(=O)NCCc1ccccc1)cn2C,inactive: 85%
11,CCOC(=O)Cc1c(C)nc2cc(-c3ccc(C(C)(C)C)cc3)nn2c1C,active: -4%
12,Cc1csc2nc(COc3ccc(NC(=O)C(C)C)cc3)cc(=O)n12,inactive: 98%
13,CN(c1ccc(C(=O)N2CCc3ccccc3C2)cc1)S(C)(=O)=O,inactive: 72%
14,Cc1nc2c3ccccc3nc(NNC(=O)CCC(=O)N3CCN(c4cc(Cl)ccc4C)CC3)n2n1,active: 55%
15,COc1ccc(OCC(=O)Nc2cccc(C(=O)OCc3cc(=O)n4nc(C)sc4n3)c2)cc1,inactive: 107%
16,CCc1cccc(NC(=O)CSc2nc3ccccc3nc2N2CCCCC2)c1,active: -6%
17,CNC(=O)CCCN1C(=O)CCn2nc(-c3cn(C)c4ccccc34)cc21,inactive: 128%
18,COCc1cc(C)nc2sc(C(=O)Nc3ccc(C(C)=O)cc3)c(N)c12,inactive: 81%
19,Cc1cccc(N2CCN(C(=O)c3cnn(-c4ccc(F)cc4F)c3C3CCN(C(=O)OC(C)(C)C)CC3)CC2)c1C,inactive: 82%

row,Structure (SMILES),survival
1,Cc1ccc(CNC(=O)Cn2nc(N3CCN(c4ccccc4)CC3)ccc2=O)cc1,inactive: 61%
2,CCOc1ccc(NC(=O)CC2C(=O)N(c3ccccc3)C(=O)N2C2CCCC2)cc1 (stereo unspecified),inactive: 73%
3,Cc1ccc(NC(=O)CSc2nc3ccccc3c(=O)n2CCC(=O)NC2CCCCC2)cc1C,inactive: 86%
4,CCOc1ccccc1NC(=O)c1cc2cc3cc(C)ccc3nc2s1,inactive: 91%
5,CCOC(=O)c1cc2c(=O)n3ccccc3nc2n(Cc2ccco2)c1=NC(=O)c1cccc(C)c1,active: 33%
6,CCCNC(=O)CSc1c2c(nc3ccc(Cl)cc13)CCCC2,inactive: 62%
7,CCCn1c2ccccc2c2cnn(CC(=O)N(CC)c3cc(C)ccc3C)c(=O)c21,inactive: 77%
8,O=C(O)CN1C(=O)/C(=N\N2C(=O)CSC2=S)c2ccccc21,inactive: 73%
9,Cc1ccc2oc(=O)c3cnn(CC(=O)N4CCN(c5ccccc5F)CC4)c3c2c1,inactive: 88%
10,Cc1ccc(NC(=O)Nc2cn(C)c(=O)c3ccccc23)c(Cl)c1,inactive: 89%
11,Cc1cccc(N2CCN(C(=O)C3CCN(S(=O)(=O)c4c(C)noc4/C=C/c4ccccc4F)CC3)CC2C)c1 (stereo unspecified),inactive: 80%
12,Cc1cc(=O)n(Cc2ccccc2)c2c1c(C)nn2-c1ccccc1,inactive: 89%
13,CCc1ccccc1NC(=O)c1ccc(Cn2nc(N3CCN(c4ccccc4)CC3)ccc2=O)o1,inactive: 75%
14,COc1cc(NC(=O)CCc2c(C)nc3c(-c4ccc(F)cc4)c(C)nn3c2C)cc(OC)c1OC,inactive: 123%
15,COc1ccc(C)cc1S(=O)(=O)NCc1ccccc1,inactive: 75%
16,O=C(CNCc1ccco1)Nc1ccc(Oc2ccccc2)cc1,inactive: 89%
17,COc1ccc(CNC(=O)C(Cc2ccccc2)NS(=O)(=O)c2ccc3c(c2)CCN3C(C)=O)cc1 (stereo unspecified),inactive: 104%
18,CCCSc1ncc(Cl)c(C(=O)N2CCN(c3cccc(Cl)c3)CC2)n1,active: 40%
19,Cc1ccc2c(C)nc(Nc3nccc(C)n3)nc2c1,inactive: 94%

row,Structure (SMILES),survival
1,CCOc1ccc(NC(=O)CC2C(=O)N(c3ccc(OC)cc3)C(=O)N2C2CCCCC2)cc1 (stereo unspecified),inactive: 110%
2,CCC(=O)N1CCc2cc(CNS(=O)(=O)c3ccc(C(C)C)cc3)ccc21,inactive: 65%
3,CCOC(=O)c1c(NC(=O)/C=C/c2ccc(OCC)cc2)sc(C(C)=O)c1C,inactive: 62%
4,Cc1nn(-c2ccccc2)c2sc(C(=O)Nc3cccc(Cl)c3)cc12,active: 2%
5,COc1cc2nc(NCCc3ccccc3)n3nc(-c4cccnc4)nc3c2cc1OC,inactive: 118%
6,COC(=O)c1ccc2c(=O)n(CCCCCC(=O)N3CCN(c4cc(C)ccc4C)CC3)c(=O)[nH]c2c1,inactive: 82%
7,Cc1ccc(C)c(N2CCN(C(=O)CCS(=O)(=O)c3cc(Br)cc4c3N(C(=O)C3CC3)CC4)CC2)c1,inactive: 62%
8,Cc1cc2nn(-c3ccc(F)cc3)nc2cc1NC(=O)c1cccc([N+](=O)[O-])c1C,inactive: 76%
9,COc1cccc(OC(=O)CSc2nnc(-c3cccs3)o2)c1,inactive: 106%
10,CC(=O)Nc1ccc(Nc2nc3c(S(=O)(=O)c4cc(C)ccc4C)nnn3c3ccsc23)cc1,inactive: 85%
11,COc1ccc(N2C(=O)CSC23C(=O)N(CC(=O)Nc2ccccc2F)c2ccccc23)cc1 (stereo unspecified),inactive: 113%
12,COC(=O)c1ccc(Nc2nc(-c3ccccc3Cl)nc3ccccc23)cc1,active: 21%
13,Clc1cccc(-c2nc3ccccn3c2Nc2ccc3c(c2)OCCO3)c1,inactive: 83%
14,Cc1cccc(C(=O)Nc2cc3nn(-c4ccc(C(C)C)cc4)nc3cc2C)c1,inactive: 76%
15,N#C/C(=C/c1ccccc1Cl)c1nc2ccccc2c(=O)[nH]1,inactive: 53%
16,CCCCCCNC(=O)c1c[nH]c2ccc(S(=O)(=O)N(C)c3ccc(C(C)C)cc3)cc2c1=O,inactive: 95%
17,Cc1cc(C)c2nc(NCCNC(=O)C3CCCCC3)c(C#N)cc2c1,inactive: 93%
18,COc1ccc(N2CCN(C3(c4ccccc4)C(=O)c4ccccc4C3=O)CC2)cc1,inactive: 105%

# Reference: PubChem BioAssay AID463173 (ICCB-Longwood Screening Facility, Harvard Medical School, 2010)
